# Measurements taken from PubChem BioAssay AID1963576 (National Center for Advancing Translational Sciences (NCATS), 2024).
# The whole screen tested about 46,000 compounds, of which about 60 (0.1%) were called active. Not shown: some 3% with an inconclusive outcome. Calls follow the shape of the dose curve; as a rule, active = well fitted inhibition curve with a large enough effect; inconclusive = small, poorly fitted or top-dose-only effect; inactive = no such curve, though single readings can be large or run the other way. The list shows a part of the results.
# Assay: Primary qHTS assay for Inhibitors of ovarian cancer metastasis using an organotypic tumor microenvironment (TME) model. Also: nearly all actives have a fitted effect of over 65% in size.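 As to activity change, negative = inhibition: plate controls were DMSO wells for no effect and tomatine positive control wells for full effect.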
# Conditions: SKOV3ip1-GFP adhesion/invasion on 3D omental model, fluorescence; series mostly up to 45.8 µM; activity change, negative = inhibition: at the top concentration
# Summary of the method: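 qHTS, 4-pt dose (0.36-46 umol/L); SKOV3ip1-GFP, 1,200 cells/well, no FBS; primary omental fibroblast/mesothelial co-culture 48 h pre-grown; 2 h RT + 16 h 37 C; PBS wash, 4% PFA; GFP count 488/509 nm.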
SMILES,"activity change, negative = inhibition",outcome
COc1ccccc1C(=O)Oc1ccc(C(c2c(C)[nH][nH]c2=O)c2c(C)[nH][nH]c2=O)cc1,inactive: 6.07%,–
Cc1nc(-c2ccc(F)cc2)sc1CCNC(=O)C(=O)Nc1ccc2c(c1)OCCO2,inactive: -3.29%,–
COC(=O)c1cc(-c2ccc(C)cc2)c2c(=O)n(C)c(=O)n(C)c2n1,inactive: -8.86%,–
COc1ccc(-c2cc(C(=O)Nc3c(C)n(C)n(-c4ccccc4)c3=O)no2)cc1OC,inactive: 1.98%,–
CSc1nn(Cc2ccc(C)cc2)c(N)c1S(=O)(=O)c1ccccc1,inactive: -13.4%,–
Cc1ccc(S(=O)(=O)NC(=O)NN2CC3CCCC3C2)cc1 (configuration not stated),inactive: 17.2%,–
O=C(CCCn1c(=O)c2cccn2c2ccccc21)NCCc1ccc(Cl)cc1,inactive: -16.3%,–
Cc1csc2nc(COC(=O)c3ccccc3NC(=O)c3ccc(C(C)(C)C)cc3)cc(=O)n12,–,inactive
COc1ccc(-c2cc(C(F)(F)F)nc(NCCc3ccccc3)n2)cc1OC,–,inactive
COc1ccc2oc(=O)c(C(=O)N3CCN(c4ccc(C)cc4)CC3)cc2c1,–,inactive
COc1ccc(CC(=O)Nc2ccc(-c3nc4ccccc4s3)c(C)c2)cc1OC,inactive: 28.1%,–
COc1cccc(CNC(=O)c2cc(S(=O)(=O)N3CCCCC3)c[nH]2)c1,inactive: -14.1%,–
O=C(NCc1ccccc1Cl)c1ccc2oc(=O)n(Cc3ccccc3)c2c1,inactive: 107%,–
Cc1cc(C)n(-c2nc3ccccc3nc2N2CCN(c3cccc(C(F)(F)F)c3)CC2)n1,inactive: -9.98%,–
CCOC(=O)c1c(NC(=O)C2c3ccccc3Oc3ccccc32)sc(C)c1C,inactive: 10.1%,–
CCOc1cccc2sc(N(Cc3cccnc3)C(=O)c3ccc(C#N)cc3)nc12,–,inactive
Cc1c(CC(=O)NCc2ccc(F)cc2)c(=O)oc2cc(O)c(Cl)cc12,inactive: 5.38%,–
Cc1ccc(-n2c(SCc3ccccc3)nc3c([nH]c4ccccc43)c2=O)cc1,inactive: 2.75%,–
Cc1ccc(NC(=O)c2ccccc2Br)c(C(=O)c2ccccc2)c1,inactive: -8.25%,–
Cc1cc(NC(=O)CCNS(=O)(=O)c2cccc3nsnc23)ccc1Br,–,inactive
O=C(Nc1ccc(-c2nc3cc(Cl)ccc3o2)cc1)c1cc2ccccc2o1,–,inactive
CCC1(C)Cc2c(sc3nc(SC)n(-c4ccc(C)cc4)c(=O)c23)CO1 (configuration not stated),inactive: 3.19%,–
Cc1nnc(NC(=O)c2ccccc2)s1,inactive: 0.503%,–
COc1ccc(CNC(=O)c2ccc3nc(-c4ccc(F)cc4)c(-c4ccc(F)cc4)nc3c2)cc1,inactive: -1.27%,–

SMILES,"activity change, negative = inhibition",outcome
COc1ccc(Cn2c(SCc3ccc(C(=O)NC(C)c4ccccc4)cc3)nc3cccnc32)cc1 (configuration not stated),inactive: 20.1%,–
CC1CCN(c2nc3ccc(C(=O)NCc4ccccc4)cc3s2)CC1,–,inactive
CC(=O)c1c(C)oc2c1cc(NS(=O)(=O)c1ccc(Cl)c(C)c1)c1ccccc12,–,inactive
O=S(=O)(NCc1nc2cccnc2n1Cc1ccccc1Cl)c1ccc(F)c(Cl)c1,–,inactive
Cc1cccc(N2CCN(C(=O)CS(=O)(=O)Cc3nc(-c4ccccc4C)oc3C)CC2C)c1 (configuration not stated),inactive: -13.1%,–
CCc1ccc(S(=O)(=O)c2nnn3c2nc(Nc2ccc(NC(C)=O)cc2)c2sccc23)cc1,–,inactive
COc1ccc(OC)c(NC(=O)Cn2c(=O)cc(-c3ccccc3)c3c(C)nn(C)c32)c1,inactive: 4.77%,–
CCOC(=O)CNC(=O)N1CCN(c2nnc(C)c3c(C)n(-c4ccc(Cl)cc4)nc23)CC1,inactive: -0.391%,–
COc1cc(NC(=O)CCCOc2cc(=O)n(C)c3ccccc23)cc(OC)c1OC,inactive: 9.53%,–
Cc1ccc(-n2c(Cc3ccccc3)nnc2SCc2nc(-c3cccs3)no2)cc1C,–,inactive
CCOC(=O)C1CCCN(Cc2cn3c(-c4cccc(Br)c4)nnc3s2)C1 (configuration not stated),–,inactive
Cc1nc(-c2ccc(C)c(N3CCN(C(=O)Nc4cccc(Cl)c4C)CC3)c2)no1,–,inactive
Cc1cccc(OCC(=O)Nc2nnc(S(=O)(=O)N3CCc4ccccc43)s2)c1,–,inactive
O=C(Nc1ccc(Cl)cc1)C(NS(=O)(=O)c1cccs1)c1ccccc1 (configuration not stated),inactive: -2.51%,–
CC(C)(O)CC[C@@H](O)[C@](C)(O)[C@H]1CC[C@@]2(O)C3=CC(=O)[C@@H]4C[C@@H](O)[C@@H](O)C[C@]4(C)[C@@H]3CC[C@]12C,inactive: 7.08%,–
Cc1cc(C)c2c(=O)cc(CSc3n[nH]c(C)n3)[nH]c2c1,inactive: -0.434%,–
COc1ccc(CCC(=O)NC2CC(=O)N(c3ccc(OC)cc3)C2)cc1 (configuration not stated),–,inactive
CCc1ccccc1NC(=O)c1noc2c1CC(C(C)(C)C)CC2 (configuration not stated),inactive: 19%,–
Cc1cccc(NC(=O)C(=O)NCCc2csc(-c3ccc(F)cc3)n2)c1C,inactive: 4.25%,–
CCN(C(=O)c1cn(CC)c(=O)c2cc(OC)c(OC)cc12)c1ccccc1F,–,inactive
O=c1c(O)c(-c2cc(O)c(O)c(O)c2)oc2cc(O)cc(O)c12,inactive: 3.52%,–
CCC(C(=O)Nc1cc(F)ccc1F)n1nc(C)c2c(C)n(-c3ccc(C)cc3)nc2c1=O (configuration not stated),–,inactive
CCOC(=O)c1ccc(NC(=O)C2=C(C)Nc3nc(CCCO)nn3C2c2ccc(OC)cc2)cc1 (configuration not stated),inactive: 21.8%,–
